Data as given in PubChem BioAssay AID624296 (National Center for Advancing Translational Sciences (NCATS), 2012).
Values joined by “and” are separate entries in the source; they are usually repeats but may differ in a detail not shown here. Equal entries are not always repeated. In all, about 350,000 compounds went through this assay and about 9,900 (2.8%) were called active. This list was built around the results that the source calls inconclusive (neither active nor inactive); the mix of calls is not that of the screen. Calls follow the shape of the dose curve; as a rule, active = well fitted activation curve with a large enough effect; inconclusive = small, poorly fitted or top-dose-only effect; inactive = no such curve, though single readings can be large or run the other way. Where the call is inconclusive, the potency comes from a doubtful curve fit.

test: A quantitative high throughput screen for small molecules that induce DNA re-replication in MCF 10a normal breast cells.; also: nearly all actives have a fitted effect of over 50% in size; as to activity, positive = re-replication: % of control where 0% means no effect; settings: MCF 10A DNA re-replication, Hoechst nuclear intensity, 48 h; activity, positive = re-replication: at 46.1 µM (top of the series)
Potency is read from the fitted curve at half-maximal effect; tags tell the direction and shape of the fitted curve.

Compound | Potency | activity, positive = re-replication
Cc1nn(Cc2ccccc2Cl)c(C)c1NC(=O)c1noc2c1CCCCC2 | inconclusive: 0.58 µM [activator, full curve] | –
O=C1c2ccccc2C(=O)c2c1cccc2-n1nnc2ccccc21 | inactive | –
COc1cc(/C=C(/NC(=O)c2ccccc2)C(=O)N2CCOCC2)c([N+](=O)[O-])cc1OC | inactive | –
COc1cccc2sc(N3CCN(C(=O)C4COc5ccccc5O4)CC3)nc12 (stereo not given) | inconclusive: 29.1 µM [activator, partial curve, poor fit] | –
N#Cc1ccc(CN2CCN(C(=O)CNC(=O)Cc3cccc4ccccc34)CC2)cc1 | inconclusive: 2.06 µM [activator, partial curve, poor fit] | –
O=C(c1ccccc1)N1CCCCC(Cl)C1=O (stereo not given) | inactive | –
Cc1ccc(NC(=O)c2nnn(-c3cc(C)cc(C)c3)c2N)cc1 | inconclusive: 25.9 µM [activator, single point] | –
COC(C(=O)NNC(=O)CCc1ccccc1)c1ccccc1 (stereo not given) | inactive | –
CC(C)c1nnc(NC(=O)Cc2ccccc2[N+](=O)[O-])s1 | inconclusive: 2.91 µM [activator, single point] | –
Cc1ccc(NC(=O)Nc2cccnc2)cc1NC(=O)Nc1cccnc1 | inactive | –
Cc1ccc(O)c(-c2cc(C(=O)Nc3ccc(S(=O)(=O)Nc4nc(C)cc(C)n4)cc3)[nH]n2)c1 | inactive | –
CCCC(=O)Nc1ccc2c(c1)COC2=O | inactive | –
CCn1c(SCc2ccccc2)nc2cc(S(N)(=O)=O)ccc21 | – | inconclusive: -28.4% [activator]
CCOC(=O)Cc1csc(NC(=O)c2csc3c2CCCC3)n1 | inactive | –
CCC1CN(C(=O)N2CCC(C(=O)NCCc3ccc(OC)cc3OC)CC2)c2ccccc2O1 (stereo not given) | inactive | –
CC1=C(C)C(=O)C(CCCCC#CCCCC#CCO)=C(C)C1=O | inconclusive: 29.9 µM [activator, single point] and inconclusive: 20.6 µM [activator, single point] | –
O=C1NC(=Nc2ccccc2)S/C1=C\c1ccccc1 | inactive | –
COC(=O)C1=C(C(=O)OC)[C@@H]2N(C)c3ccccc3[C@@]23C[C@@H](C(=O)OC)N=C3N1 | inconclusive: 5.8 µM [activator, single point] | –
COc1ccc(CNC(=O)CCCCCNc2nc(=S)[nH]c3ccccc23)cc1 | inconclusive: 29.1 µM [activator, single point] | –
CCCCCc1ccc(OCCC[n+]2ccccc2)c(CCCCC)c1 | inconclusive: 25.9 µM [activator, single point] | –
C[n+]1cccc(C2C(C#N)=C(N)Oc3c2ccc2ccccc32)c1 (stereo not given) | inconclusive: 23.1 µM [activator, single point] | –
COc1cc(NC(=O)c2cccs2)c(C(=O)OCC(=O)NCc2ccco2)cc1OC | inconclusive: 23.1 µM [activator, single point] | –
C=COCCNC(=S)Nc1cccc(Cl)c1 | inactive | –
Cc1ccc2[nH]cc(C(=O)NCc3cccs3)c(=O)c2c1 | inactive | –

Compound | Potency | activity, positive = re-replication
Cc1c(CCC(=O)O)c(=O)oc2cc3occ(-c4ccc(Br)cc4)c3cc12 | inconclusive: 9.2 µM [activator, partial curve, poor fit] | –
O=C1CCC(C(=O)NCc2ccc3c(c2)OCO3)N1 (stereo not given) | inactive | –
COc1ccccc1CNC(=O)CSC1=NCCS1 | inconclusive: 14.1 µM [activator, single point] | –
O=C(Nc1nc2ccc(F)cc2s1)C1CCN(S(=O)(=O)c2cc([N+](=O)[O-])ccc2Cl)CC1 | inconclusive: 8.2 µM [activator, partial curve, poor fit] | –
c1ccc(-n2cnc3cc(NCc4ccco4)ccc32)cc1 | inconclusive: 20.6 µM [activator, single point] | –
COc1ccc(CN(C)CC(=O)Nc2sc3c(c2C#N)CCC3)cc1OC | inconclusive: 1.16 µM [activator, single point] | –
CC1=C/C(=C\c2ccc(Br)o2)C(=O)O1 | inactive | –
COc1cc(/C=C2\C(=O)ON=C2c2ccccc2)cc(OC)c1OC | inconclusive: 29.1 µM [activator, single point] | –
Cc1ccc(C)c(Cn2nc3c4ccccc4n(Cc4ccccc4)cc-3c2=O)c1 | inconclusive: 20.6 µM [activator, partial curve, poor fit] | –
COc1ccc2c(COC(=O)[C@@H]3CCCN3S(=O)(=O)c3ccc(Cl)cc3)cc(=O)oc2c1 | inactive | –
C#C[C@]1(O)CC[C@H]2[C@@H]3CCc4cc(OC)ccc4[C@H]3CC[C@@]21C | inactive and inconclusive: 29.9 µM [activator, partial curve, poor fit] | –
Cc1ccc(C2(C)NC(=O)N(CC(=O)Nc3ccc(Cl)c(S(=O)(=O)N4CCCCC4)c3)C2=O)cc1 (stereo not given) | inactive | –
CCN1CCN(C(c2cc3cccc(C)c3[nH]c2=O)c2nnnn2Cc2ccccc2)CC1 (stereo not given) | inactive | –
CCOc1ccc(C(=S)NC2CCCCC2)cc1OC | inconclusive: 29.1 µM [activator, partial curve, poor fit] | –
CCC(C)(C)NC(=O)c1cc(C(=O)OC)cc([N+](=O)[O-])c1 | inactive | –
O=C(CN1CCN(S(=O)(=O)c2ccccc2C(F)(F)F)CC1)NCc1cccs1 | inconclusive: 5.01 µM [activator, single point] | –
O=C(c1cnn2c(C(F)F)cc(C3CC3)nc12)N1CCc2ccccc2C1 | inconclusive: 29.1 µM [activator, single point] | –
Cc1n[nH]c(C)c1CCc1nc2c3ccccc3nc(SCC(=O)Nc3ccccc3F)n2n1 | inconclusive: 23.1 µM [activator, single point] | –
COc1ccc(S(=O)(=O)N/N=C\c2ccc3c(c2)OCO3)c(OC)c1 | inactive | –
COc1ccc(CNC(=O)COc2ccccc2C(=O)c2cnn(-c3ccccc3)c2)cc1OC | active: 13 µM | –
CCOC(=O)C1CCCN(Cc2ccc(OC)c(OCc3ccccc3)c2)C1 (stereo not given) | inconclusive: 0.731 µM [activator, full curve, poor fit] | –
Cc1ccc(-c2cc(C(=O)N/N=C/c3c[nH]c4ccccc34)n[nH]2)o1 | inactive | –
COc1ccc(OC)c(NC(=O)Nc2c(O)ccc3ccccc23)c1 | inconclusive: 29.1 µM [activator, single point] | –
O=C(OC1CCOC1=O)C1CCN(S(=O)(=O)c2ccc(Cl)c(C(F)(F)F)c2)CC1 (stereo not given) | inconclusive: 20.6 µM [activator, single point] | –

Compound | Potency | activity, positive = re-replication
COCCNC(=O)C1=C(N)C(C(=O)Nc2ccc(C)c(S(=O)(=O)N3CCCCC3)c2)SC1=Nc1ccc(C)cc1C (stereo not given) | inconclusive: 25.9 µM [activator, single point] | –
Cc1cc(N2CCC(C)CC2)nc(NCc2ccccc2)n1 | inactive | –
Cc1ccc(C(=O)c2coc3ccc(OCC(=O)O)cc23)cc1 | inactive | –
CC(=O)c1ccc(S(=O)(=O)N2CCN(C(=O)/C=C/c3ccc4ccccc4n3)CC2)cc1 | inconclusive: 29.1 µM [activator, single point] | –
Cc1c2ccccc2nc2ccccc12 | inactive | –
NC(=S)n1[nH]c(-c2ccc([N+](=O)[O-])cc2)c(N=Nc2cccc(Cl)c2)c1=O | inconclusive: 2.91 µM [activator, full curve, poor fit] | –
Cn1cnnc1SCC(=O)c1ccc2c(c1)OCCO2 | inconclusive: 29.1 µM [activator, single point] | –
CCCc1cc(=O)[nH]c(NCc2ccc(Cl)cc2)n1 | inconclusive: 11.6 µM [activator, partial curve, poor fit] | –
COC(=O)COc1cccc(NS(=O)(=O)c2cccc([N+](=O)[O-])c2)c1 | inconclusive: 10.3 µM [activator, partial curve, poor fit] | –
N#CC(C(=O)Nc1ccc(Cl)c(Cl)c1)=C1Nc2ccccc2N1 | inconclusive: 15.8 µM [activator, single point] | –
CSc1ccc(S(=O)(=O)NC2CCCCCC2)cc1 | active: 9.2 µM | –
O=C(/C=C/c1cccc(C(F)(F)F)c1)N1CCN(c2ccccn2)CC1 | active: 9.2 µM | –
CCOC(=O)CN1CCc2c(C)nc3c(-c4ccc(OC)c(OC)c4)cnn3c21 | inconclusive: 5.17 µM [activator, partial curve, poor fit] | –
COc1ccc(/C=C(/NC(=O)c2ccccc2)C(=O)NCc2ccco2)cc1 | inactive | –
CC(NCC(=O)Nc1ccccc1C(=O)NC1CC1)c1cccs1 (stereo not given) | inactive | –
CCN(CC)S(=O)(=O)c1ccc(NC(=O)CC(NC(C)=O)c2ccccc2)cc1 (stereo not given) | inconclusive: 4.11 µM [activator, single point] | –
COc1cccc(=O)c2c(C)n(-c3cc(C)cc(C)c3)c(C)c12 | inconclusive: 20.6 µM [activator, partial curve, poor fit] | –
COc1ccc2nc(Nc3nc(CSc4nnc(C)s4)cc(=O)[nH]3)nc(C)c2c1 | inactive | –
COC(=O)C(NC(=O)c1ccc(F)cc1)(Nc1ncc(S(=O)(=O)c2ccc([N+](=O)[O-])cc2)s1)C(F)(F)F (stereo not given) | inconclusive: 20.6 µM [activator, partial curve, poor fit] | –
CCOc1ccc(NC(=O)Nc2cc(OCC(F)(F)F)cc(OCC(F)(F)F)c2)cc1 | inconclusive: 6.51 µM [activator, partial curve, poor fit] | –
COc1cc(C=O)ccc1OCC(=O)Nc1cccc(S(=O)(=O)N(C)c2ccccc2)c1 | inactive | –
COc1ccc(C(C[N+](=O)[O-])n2nc(C)cc2C)cc1 (stereo not given) | active: 13 µM | –
